Results published in the antibiotic and cytotoxicity screens of Wong et al. (2023).
This is one part of the list.

How the values were obtained:
HSkMC = human skeletal muscle cells; assay: cytotoxicity call (relative viability < 0.9); details: 10 µM
HepG2 = assay: cytotoxicity call (relative viability < 0.9); details: 10 µM
S. aureus RN4220 = assay: growth inhibition call (relative growth <= 0.2); details: 50 µM

| SMILES | cytotoxicity call (HSkMC) | cytotoxicity call (HepG2) | growth inhibition call (S. aureus RN4220) |
| --- | --- | --- | --- |
| COc1cc2c(cc1OC)[C@@]13ON=C(c4ccc(OCCOC(=O)NCCCCCC(=O)NO)cc4)[C@@H]1CCN3CC2 | inactive | inactive | inactive |
| C[C@H](CO)N1C[C@H](C)[C@@H](CN(C)C(=O)Nc2ccccc2)Oc2ccc(NC(=O)Nc3ccc(C(F)(F)F)cc3)cc2CC1=O | inactive | inactive | inactive |
| CC(=O)NCCn1cccc1 | inactive | inactive | inactive |
| COc1ccc(S(=O)(=O)Nc2ccc3c(c2)CC(=O)N([C@H](C)CO)C[C@@H](C)[C@@H](CN(C)Cc2ccc(Cl)c(Cl)c2)O3)cc1 | active | active | inactive |
| C[C@@H]1CN([C@H](C)CO)C(=O)c2cc(NS(=O)(=O)c3cn(C)cn3)ccc2O[C@@H]1CN(C)S(=O)(=O)c1ccc(Cl)cc1 | inactive | inactive | inactive |
| O=C(N/N=C/[C@H](O)[C@H](O)[C@@H](O)[C@@H](O)CO)c1ccccc1O | inactive | active | inactive |
| C[C@@H]1CN([C@H](C)CO)C(=O)c2cccc(NC(=O)C3CC3)c2O[C@@H]1CN(C)S(=O)(=O)c1cn(C)cn1 | inactive | inactive | inactive |
| Cc1ccc(N(c2ccc(C)cc2)c2cccnc2)cc1 | inactive | inactive | active |
| COc1ccc(-c2cnc3c(c2)C(=O)N([C@@H](C)CO)C[C@H](C)[C@@H](CN(C)C(=O)C2CCOCC2)O3)cc1 | inactive | inactive | inactive |
| C[C@H]1CN([C@@H](C)CO)S(=O)(=O)c2ccc(C#CCN(C)C)cc2O[C@@H]1CN(C)Cc1ccncc1 | inactive | inactive | inactive |
